Several values for one entry are separate records, joined by “and”; a condition that tells them apart may be missing. Identical values can stand only once. In all, about 110,000 compounds went through this assay and about 230 (0.21%) showed an effect of 50% or more. The list shows a part of the results.
target: DPAP1 (Plasmodium falciparum, UniProt Q8IIJ9); test: primary screen, percent inhibition; read by cleavage of a fluorogenic dipeptide substrate; higher = more effect of the substance; set-up: species or system P. falciparum D10 trophozoite lysates; single well
Sequence (Q8IIJ9 whole entry, looked up): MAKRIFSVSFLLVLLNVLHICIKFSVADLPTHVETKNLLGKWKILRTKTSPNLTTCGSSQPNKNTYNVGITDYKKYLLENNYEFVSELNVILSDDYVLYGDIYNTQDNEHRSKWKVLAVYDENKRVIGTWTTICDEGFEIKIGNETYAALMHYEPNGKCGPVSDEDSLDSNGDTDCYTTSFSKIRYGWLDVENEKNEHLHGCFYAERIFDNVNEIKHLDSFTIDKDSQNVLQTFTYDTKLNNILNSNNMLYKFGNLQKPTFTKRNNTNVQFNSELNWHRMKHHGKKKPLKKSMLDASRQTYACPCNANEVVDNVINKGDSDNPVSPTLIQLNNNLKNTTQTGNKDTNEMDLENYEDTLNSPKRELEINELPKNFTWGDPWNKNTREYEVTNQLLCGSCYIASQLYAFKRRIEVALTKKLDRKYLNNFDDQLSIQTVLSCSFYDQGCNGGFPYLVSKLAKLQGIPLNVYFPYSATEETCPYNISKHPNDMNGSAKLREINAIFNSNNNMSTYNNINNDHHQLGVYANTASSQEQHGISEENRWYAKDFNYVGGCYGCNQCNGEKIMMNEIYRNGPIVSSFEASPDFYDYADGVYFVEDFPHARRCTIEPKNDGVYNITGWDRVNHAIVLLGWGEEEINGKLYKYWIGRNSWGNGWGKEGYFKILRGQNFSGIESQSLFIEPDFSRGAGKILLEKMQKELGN
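Also: 30 min substrate incubation versus DMSO and 10 µM JCP410 controls.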

Row | SMILES | % Inhibition @ 10 uM
1 | Cc1ccc(C(=O)NCc2ccc3c(c2)OCO3)cc1Cl | -3.78%
2 | CC(CN(CCO)CCO)c1ccccc1 (stereo not drawn) | 3.48%
3 | C=C(C)COc1ccc(C2C3CN(C)CC=C3C(C#N)=C(N)C2(C#N)C#N)cc1OC (stereo not drawn) | -3.07%
4 | Cc1ccccc1OCC(=O)OCC(=O)c1ccc([N+](=O)[O-])cc1 | -3.55%
5 | CC1CCCC(NC(=O)CCn2nc(-c3ccc(Cl)cc3)ccc2=O)C1C (stereo not drawn) | 6.32%
6 | C=Cc1ccc(Cn2c(C(=O)O)c(CNCc3cc(OC)ccc3OC)c3ccccc32)cc1 | 2.27%
7 | CCN(CC)CCCNC(=O)C1CCC(CNS(=O)(=O)c2c(C)cc(C)cc2C)CC1 (stereo not drawn) | -2.72%
8 | COc1ccc(CC2C(=O)NC(=S)NC2=O)cc1 | 3.32%
9 | Cc1nc2c(c(C)nn2-c2ccccc2)c(C)c1CCC(=O)NCCC(C)C | 2.57%
10 | CC1=C(C#N)C(=O)N(C)C(=O)/C1=C\Nc1ccc(C(=O)N(C)C)cc1 | 5.89%
11 | COc1ccc(CNCc2c(C(=O)O)n(Cc3cccc(F)c3)c3cc(OC)ccc23)c(OC)c1 | -3.88%
12 | CCCSc1ncc(Cl)c(C(=O)N(Cc2ccccc2)Cc2ccco2)n1 | -0.45%
13 | O=C1CCCC/C1=C/Nc1ccc(F)cc1F | -2.77%
14 | COc1ccc(C(=O)N/C(=C\c2ccccc2)C(=O)Nc2ccc(C)cc2)cc1 | 5.49%
15 | O=C(CSc1ncnc2sc3c(c12)CCCCC3)N1CCOCC1 | 0.493%
16 | COc1ccc(-c2onc(C)c2C)cc1S(=O)(=O)NCc1ccc(Cl)cc1 | -7.06%
17 | CCN(CCN(C)C)Cc1cccc(C)c1 | -1.78%
18 | Cn1c(=O)c2c(n3nnnc13)-c1ccccc1CC21CCCC1 | 4.08%
19 | CCCCNC(=O)C(=O)c1c[nH]c2ccccc12 | 5.44%
20 | CC(C)(C)c1cc(CN2CCN(c3ccccc3)CC2)cc(C(C)(C)C)c1O | -0.969%
21 | c1ccc2oc(-c3ccc(-c4nc5ccccc5o4)c4ccccc34)nc2c1 | -0.828%

Row | SMILES | % Inhibition @ 10 uM
22 | O=C(NC12CC3CC(CC(C3)C1)C2)N1CCN(C(=O)c2ccco2)CC1 | 0.163%
23 | CCCCN(C)C(=O)C(CC1CCCCC1)C(=O)NCC#N (stereo not drawn) | -6.98%
24 | CC(C)(C)c1ccc(S(=O)(=O)c2cc3cc(Br)ccc3oc2=O)cc1 | -3.1%
25 | COc1ccc(-n2nnc(-c3nc(-c4ccncc4)no3)c2N)cc1Cl | 3.98%
26 | Cc1ccccc1NC(=O)C(C)Oc1ccccc1C (stereo not drawn) | -4.02%
27 | Cc1noc(NS(=O)(=O)c2ccc(NC(=O)CSc3nc4ccccc4[nH]3)cc2)c1C | -4.7%
28 | Cc1[nH]c2ccc([N+](=O)[O-])cc2c1-c1ccccc1 | 4.08%
29 | CSc1nc(-c2ccco2)nn1S(=O)(=O)c1ccccc1 | 0.658%
30 | COc1ccccc1CNC(=O)Cn1nc(Cc2ccncc2)c2ccccc2c1=O | -1.21%
31 | CC(=O)N(Cc1cc2ccccc2nc1O)c1ccccc1 | 1.37% and 1.19%
32 | CC(NC(=O)C(=O)N1CCOCC1)C(c1cccs1)N1CCN(Cc2ccccc2)CC1 (stereo not drawn) | 0.66%
33 | O=C1CC(c2ccc(Cl)cc2)c2ccc3ccccc3c2N1 (stereo not drawn) | 1.36%
34 | CCN(Cc1ccncc1)C(=O)c1ccccc1 | 1.9%
35 | CCSc1c(O)cnn(-c2ccccc2)c1=O | 1.38%
36 | O=C(c1ccccc1)c1cnc2cc3c(cc2c1S(=O)(=O)c1ccc(Cl)cc1)OCO3 | -5.2%
37 | Fc1ccc(-c2ncnn2-c2ccc(Br)cc2F)cc1 | -0.0953%
38 | COc1cccc(C(=O)NC(=O)OCCN2C(=O)c3ccccc3C2=O)c1 | -0.834%
39 | CC(C)OCCCNC(=O)Nc1cn(C)c(=O)c2ccccc12 | 5.62%
40 | Cc1ccc2[nH]c3c(c2c1)CCCC3NCC12CC3CC(CC(C3)C1)C2 (stereo not drawn) | 6.33%
41 | COc1cc(OC)cc(C(=O)Nc2ccc(Cl)c(Cl)c2)c1 | 1.39%
42 | COCCOC(=O)C1=C(C)OC(N)=C(C#N)C1c1ccc(Br)cc1 (stereo not drawn) | 2.7%

Row | SMILES | % Inhibition @ 10 uM
43 | Cc1cccc(OCC(O)Cn2c(N)nc3c2c(=O)n(C)c(=O)n3C)c1 (stereo not drawn) | 3.93%
44 | c1ccc(CNc2cc(OCc3ccccc3)cc(OCc3ccccc3)c2)cc1 | -5.46%
45 | CC(=O)c1nnn(-c2nonc2NC(=O)CN2CCOCC2)c1C | -4.73%
46 | CCOc1ccc(C2CC(=O)N3CN(C(C)c4ccccc4)CSC3=C2C#N)cc1 (stereo not drawn) | 53.1%
47 | CC1=C(C(=O)NCc2ccccc2)C2(CCCCCC2)OC1=O | 1.35%
48 | CC(NC(=O)C1CCN(S(=O)(=O)N2CCC3(CC2)OCCO3)CC1)c1ccccc1 (stereo not drawn) | -1.21%
49 | CCCCN(C)CCCNC(=O)C1CCN(C2=NS(=O)(=O)C(c3ccc(C)c(C)c3)=C2C)CC1 | -1.97%
50 | O=C(COc1nsnc1N1CCOCC1)NCc1cccs1 | -8.98%
51 | CCCOC(=O)c1ccc(NC(=O)c2ccc(C)cc2)cc1 | -0.856%
52 | Cc1c2cnn(CC(=O)NC3CCC(C)CC3)c(=O)c2c(C)n1Cc1ccccc1F (stereo not drawn) | -5.81%
53 | COc1cc2c(cc1OC)-c1nnc(-c3ccco3)n1C(C)(C)C2 | -0.969%
54 | COc1cc2c(cc1OC)CN(C(=O)c1oc3ccccc3c1C)CC2 | -6.5%
55 | COc1ccc(CCN2C(=O)CC(N3CCC(C(N)=O)CC3)C2=O)cc1OC (stereo not drawn) | -1.78%
56 | Cc1ccc2c(nc3s/c(=C\c4ccc(Cl)cc4Cl)c(=O)n32)c1C | -3.14%
57 | CN1C(=O)C(=Cc2ccc(Br)cc2)C(=O)N(C)C1=O | 4.41%
58 | Cc1ccc(-c2cc(C(=O)N(C(C)C)C(C)C)c3ccccc3n2)o1 | 3.86%
59 | COc1ccc(NC(=O)c2ccc(OC(F)F)cc2)cc1Cl | 4.03%
60 | Cc1cccc(Oc2nc3c(C)cccn3c(=O)c2/C=C(\C#N)C(=O)NCCCOC(C)C)c1C | -5.1%
61 | Clc1ccc(N2CCN(Cc3ccc(Br)o3)CC2)cc1 | -5.41%
62 | Fc1ccc(-c2csc3ncnc(N4CCN(CCOc5ccccc5)CC4)c23)cc1 | 0.408%
63 | COc1ccc(C2Nc3ccccc3N=C3CC(c4ccco4)CC(O)=C32)cc1 (stereo not drawn) | 2.46%

Source: paper PMC6919601, “Identification of Plasmodium dipeptidyl aminopeptidase allosteric inhibitors by high throughput screening” (PLoS ONE, 2019)
